Source: patent publication US6465654B2, “Process for preparing 1-substituted, 2-substituted 1H-imidazo[4, 5-c]quinoline-4-amines” (3M Innovative Properties Company, priority 1991, dated 2002)

Test system: MC-26 colon tumor cells
Assay: Inhibition of MC-26 tumors in mice, 21 day lung colony count
Details: four control mice died

In the case of `CCOCc1nc2c(N)nc3ccccc3c2n1CC(C)(C)O` [Example 99, 4-Amino-α,α-dimethyl-2-ethoxymethyl-1H-imidazo[4,5-c]quinoline-1-ethanol], the “Survival until day 21” value (oral 1 mg/Kg on days 0-4, ten mice) is reported as “One mouse from this group died prior to day 21” and the “Survival until day 21” value (oral 3 mg/Kg on days 0-4, ten mice) is reported as “All of the mice in this treatment group survived until day 21”.
